The whole screen tested about 43,000 compounds, of which about 200 (0.47%) were called active. Inconclusive results (about 12%) are left out. Calls come from the whole dose curve; as a rule, active = well fitted cell-killing curve with a large enough effect; inconclusive = small, poorly fitted or top-dose-only effect, or effect the other way; inactive = flat fitted curve, though single readings scatter. The list shows a part of the results.
Assay: Cell viability qHTS assay in S16 Pmp22-F2sN cells; note: nearly all actives have a fitted effect of over 65% in size
Conditions: S16 Pmp22-F2sN Schwann cells viability, CellTiter-Glo, 24 h; series mostly up to 57.5 µM; activity change, negative = cytotoxicity: at the top concentration
In short: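 Used to flag compounds lowering reporter output through toxicity, this quantitative HTS measures ATP-based CellTiter-Glo luminescence in S16 Pmp22-F2sN Schwann cells after 24 h compound exposure at 37C.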
% is set by controls: 0 for no effect and ±100 for the full control effect; potency is the fitted concentration of half-maximal effect.

Compound | activity change, negative = cytotoxicity | Potency
CCOCCCn1c(=N)c(C(=O)NCc2cccnc2)cc2c(=O)n3cc(C)ccc3nc21 | inactive: 24.7% | 
CC(=O)Nc1ccccc1-c1nc2ccccc2n(CC(=O)c2ccc(Br)cc2)c1=O | inactive: 14.4% | 
CCOC(=O)c1cccc(NC(=O)c2cc(S(=O)(=O)N3CCCC(C)C3)cn2C)c1 (stereo not given) | inactive: 18.7% | 
CC1=C(C(N)=O)C(c2ccc(C)cc2)n2nc(SCc3ccccc3F)nc2N1 (stereo not given) | inactive: 12.3% | 
COC(=O)CNC(c1ccccc1)c1cc(Br)ccc1NC(=O)c1ccccc1 (stereo not given) | inactive: 4.93% | 
COc1cccc(-n2cc(C(=O)Nc3cc(OC)c(OC)c(OC)c3)c3ccccc3c2=O)c1 | inactive: -9.44% | 
COc1cccc(CNC(=O)CSc2nnc(C)c3c(C)n(-c4ccccc4)nc23)c1OC | inactive: -15.7% | 
CCOC(=O)C1CCCN(C(=O)Cn2ncc3c(C)n(Cc4ccccc4F)c(C)c3c2=O)C1 (stereo not given) | inactive: -4.33% | 
Cc1ccc(C(=O)CSc2ncc3c(n2)-c2ccccc2N(Cc2ccc(Cl)cc2)S3(=O)=O)cc1 | inactive: 0.327% | 
CCc1ccc2oc(-c3cccc(NC(=O)c4cc5ccccc5o4)c3)nc2c1 | inactive: 1.44% | 
Cc1nc2c(C(=O)O)cnn2c(C)c1Cc1ccccc1 | inactive: -7.97% | 
Cc1ccccc1C(=O)Nc1nc2nc(C)c(C)c(=O)n2[nH]1 | inactive: 10.6% | 
CCCc1nn2c(=O)cc(COC(=O)c3ccc(NC(=O)CCc4ccccc4)cc3)nc2s1 | inactive: 0.0159% | 
COc1cccc(NC(=O)c2sc3nc4n(c(=O)c3c2C)CCC4)c1 | inactive: 6.41% | 
CCCCOc1ccc(CNC(=O)c2ccc(-c3nc(CN4CCc5ccccc54)c(C)o3)cc2)cc1 | inactive: 16.8% | 
COc1ccc(NC(=O)Cn2c(=O)cc(C)c3c(C)nn(-c4cccc(Cl)c4C)c32)cc1OC | inactive: -0.142% | 
O=C(NCCc1csc(-c2ccc(F)cc2)n1)c1cccs1 | inactive: -0.88% | 
O=C(NC1CC(=O)N(c2ccc3c(c2)OCCO3)C1)c1c(F)cccc1Cl (stereo not given) | inactive: 8.35% | 
CCOC(=O)c1cc(-c2ccccc2)n(CC(=O)NC2CCC(C)CC2)c1C (stereo not given) | inactive: 0.952% | 
COc1ccc(-c2noc(CSc3nnc(Cc4ccccc4)n3-c3ccccc3)n2)cc1OC | inactive: -23.4% | 
CCOC(=O)c1cnc2c(ccc3ccccc32)c1Nc1ccccc1OC | inactive: 2.66% | 
Cc1ccc(-c2nn(-c3ccc(F)cc3F)c3c2cnc2c(F)cccc23)cc1 | inactive: 13% | 
Cc1ccc(NC(=O)CSc2nc3ccccc3c3nc(CCc4c(C)n[nH]c4C)nn23)c(C)c1 | inactive: 6.3% | 
Cc1ccc2c(c1)c(=O)c(C(=O)c1ccc3c(c1)OCO3)cn2Cc1cccc(F)c1 | inactive: 5.09% | 

Compound | activity change, negative = cytotoxicity | Potency
COCCNc1oc(-c2ccc(COc3ccc(OC)cc3)o2)nc1C#N | inactive: -14.8% | 
COc1cc(OC)c(NC(=O)C(NS(=O)(=O)c2cccc3nsnc23)c2ccccc2)cc1Cl (stereo not given) | inactive: 0.86% | 
Cc1ccc(CN2COc3cc(C)c4c(oc(=O)c5ccccc54)c3C2)cc1 | inactive: 17.5% | 
CCOc1cc(C2NC(=O)c3c(sc4c3CCN(C)C4)N2)ccc1OC(=O)c1ccccc1Cl (stereo not given) | inactive: 4.57% | 
COc1ccc(-c2[nH]c(-c3ccccc3)nc2SCC(=O)Nc2ccc3c(c2)OCCO3)cc1 | inactive: -4.13% | 
Cc1ccc2[nH]c(C(=O)Nc3ccccc3)cc2c1 | inactive: 5.64% | 
Cc1ccnc(NC(=O)c2c(C)oc3ncn(CC(C)C)c(=O)c23)c1 | inactive: -8.65% | 
Cc1ccc(CNC(=O)Nc2cn(CC(C)C)c(=O)c3ccccc23)cc1 | inactive: -3.19% | 
CCc1ccc(-c2nc(CN3CCCC(C(=O)NCc4ccc(C)cc4)C3)c(C)o2)cc1 (stereo not given) | inactive: 4.56% | 
COc1ccc(-c2cc3nc(C)c(CCC(=O)Nc4cccc(C(F)(F)F)c4)c(C)n3n2)c(OC)c1 | inactive: 5.46% | 
CCCCCOc1ccc(NC(=O)Cc2csc(C)n2)cc1 | inactive: -1.82% | 
Cc1ccc(C(=O)Nc2ccccc2C(=O)O)cc1S(=O)(=O)N1CCCCCC1 | inactive: 8.39% | 
O=C(Nc1sc2c(c1C(=O)Nc1ccc(Cl)cc1)CCCC2)c1cccs1 | inactive: 0.162% | 
Cc1nnc(SCc2ccccc2Cl)c2cc3sccc3n12 | inactive: 1.23% | 
CN(C(=O)Cn1cc(S(=O)(=O)N2CCN(c3ccccc3F)CC2)c2ccccc2c1=O)c1ccc(Cl)cc1 | inactive: -10.5% | 
COCC(C)NC(=O)c1cnn2c(C(F)F)cc(-c3ccccc3)nc12 (stereo not given) | inactive: 14.3% | 
Cc1cc(C)c(NC(=O)CN2c3ccccc3S(=O)(=O)c3ccccc32)c(C)c1 | inactive: -0.661% | 
COc1cc(-c2cc(OC)c3c(C)oc(C)c3c(=O)c2)ccc1OC(=O)c1ccccc1F | inactive: 0.909% | 
COc1ccccc1C(=O)NC1=NC(c2ccc(Br)cc2)CC(=O)N1 (stereo not given) | inactive: -3.08% | 
CCOC(=O)c1c(NC(C)=O)c2c3c(sc2n1Cc1nc(-c2cccc(C)c2)oc1C)CCCC3 | inactive: 20% | 
O=[N+]([O-])c1cc(-c2nc(-c3ccccc3)no2)ccc1NC1CCCC1 | inactive: 0.809% | 
COc1ccc(CN2C(=O)N(c3ccc(C)cc3)C(=O)C2CC(=O)Nc2ccccc2)cc1OC (stereo not given) | inactive: -0.204% | 
Cc1ccc(-n2c(-c3ccco3)nc3c(cnn3-c3ccccc3C)c2=O)cc1 | inactive: 22.5% | 
COC(=O)c1cc(NS(=O)(=O)c2cc(Br)cc3c2N(C(C)=O)CC3)cc(C(=O)OC)c1 | inactive: 0.104% | 

Compound | activity change, negative = cytotoxicity | Potency
COCCn1c(=N)c(C(=O)NCc2ccco2)cc2c(=O)n3cc(C)ccc3nc21 | inactive: 25% | 
Cc1ccc2nc(NCCc3ccccc3)c3nncn3c2c1 | inactive: 8.94% | 
Cc1nn(-c2ccccc2)c(OC(=O)C(C)(C)C)c1Sc1ccccc1 | inactive: 0.233% | 
CCn1c(=O)cc(OCC(=O)Nc2ccc(C)c(F)c2)c2ccccc21 | inactive: 17.7% | 
COc1ccc(-c2cn3c(n2)sc2cc(C(=O)Nc4cc(OC)cc(OC)c4)ccc23)cc1 | inactive: -1.97% | 
CCc1ccc(-n2c(=O)c3cccnc3n2CC(=O)Nc2ccccc2C(F)(F)F)cc1 | inactive: -1.09% | 
N#Cc1c(NC(=O)CS(=O)(=O)c2ccc(Cl)cc2)sc2c1CCCCC2 | inactive: 3.12% | 
COc1ccc(-c2ccc(CCC(=O)O)n2CC(=O)Nc2cccc(C(F)(F)F)c2)cc1 | inactive: 0.648% | 
Cc1cccc(-n2c(=O)c3c(c4cc(C)ccc4n3C)n(CC(=O)Nc3ccc(C)cc3C)c2=O)c1 | inactive: -11.8% | 
Cc1ccc(C(=O)Nc2ccc3oc(-c4ccncc4)nc3c2)c(Cl)c1 | inactive: 6.24% | 
CC(C)Cn1cc(NC(=O)NCc2ccccc2Cl)c2ccccc2c1=O | inactive: -4.6% | 
CC(NC(=O)C1CCN(S(=O)(=O)c2ccc3nc4c(c(C(=O)O)c3c2)CCCC4)CC1)c1ccccc1 (stereo not given) | inactive: -0.161% | 
Cc1ccc(NC(=O)CCS(=O)(=O)c2cc(Br)cc3c2N(C(=O)C2CC2)CC3)cc1 | inactive: 4.56% | 
COc1cccc(NC(=O)c2ccc3nc(Cc4ccccc4)oc3c2)c1 | inactive: -8.85% | 
Cn1c(=O)c2nc(SCC(=O)Nc3ccc(Cl)c(Cl)c3)n(C)c2n(C)c1=O | inactive: 1.55% | 
Cc1ccc(CN(Cc2ccco2)c2cnc(S(C)(=O)=O)nc2C(=O)Nc2ccccc2Br)o1 | inactive: 2.79% | 
COc1ccc(CNC(=O)Cn2nc(C)c3c(C)n(-c4ccccc4)nc3c2=O)cc1OC | inactive: 17.7% | 
CCCCc1ccc(NC(=O)C2(C)Cc3ccccc3C(=O)O2)cc1 (stereo not given) | inactive: 17.7% | 
CCc1ccc(C2CC(=O)Oc3c2c(=O)n(C)c2ccccc32)cc1 (stereo not given) | inactive: 1.45% | 
Cc1cccc(-c2nc(C(N)=O)c3c(n2)n(-c2ccc4c(c2)OCO4)c(=O)n3C)c1 | inactive: 13.8% | 
COc1ccc(N(C)C(=O)c2cc(S(=O)(=O)N3CCc4ccccc43)cn2C)c(OC)c1 | inactive: 1.19% | 
O=C(Nc1ccc(Cl)cc1)c1cc2c(-c3ccccc3)nn(-c3ccccc3)c2s1 | inactive: -0.64% | 
Cc1nn(CC(=O)N2CCCCC2)c(=O)c2cc3occc3n12 | inactive: 7.39% | 
CCOC(=O)CSc1nc2ccc(NC(=O)COc3ccccc3C)cc2s1 | inactive: 5.89% | 

Compound | activity change, negative = cytotoxicity | Potency
Cc1ccc(Cl)cc1NC(=O)CCS(=O)(=O)c1ccc2c(c1)n(C)c(=O)c(=O)n2C | inactive: -3.15% | 
Cc1ccc(-n2c3nc(=O)[nH]c(=O)c-3cc3c(C)nn(-c4ccccc4)c32)c(C)c1 | inactive: 11.8% | 
Cc1ccc(NC(=O)c2c(NC(=O)c3ccccc3)sc3c2CCC3)cc1 | inactive: 0.451% | 
CC1CCc2c(sc(NC(=O)c3cc(-c4ccc(F)cc4)on3)c2C(N)=O)C1 (stereo not given) | inactive: 20.2% | 
Cc1ccc2sc(N(Cc3cccnc3)C(=O)C3COc4ccccc4O3)nc2c1C (stereo not given) | inactive: -21.9% | 
CC(C)Cn1c(=O)c2sccc2n2c(CCCC(=O)NC3CCCCC3)nnc12 | inactive: 18.1% | 
CCN(CC)CCNC(=O)c1ccc(-n2c(-c3ccccc3)cc3c2CCCC3)cc1 | inactive: 23.3% | 
Cc1cc(C)cc(NC(=O)C2CCN(S(=O)(=O)c3cccc(-c4noc(C)n4)c3)CC2)c1 | inactive: -5.53% | 
COc1ccc(S(=O)(=O)c2nnn(-c3ccc(C)c(Cl)c3)c2C)cc1 | inactive: -1.48% | 
Cc1cccc(NC(=O)C(=O)NCCc2csc(-c3ccc(C(F)(F)F)cc3)n2)c1C | inactive: 6.09% | 
O=C(CC1N=C2c3ccccc3N=C(SCC(=O)Nc3ccccc3F)N2C1=O)NCc1cccs1 (stereo not given) | inactive: -2.68% | 
CC1=Nc2cc(C(=O)NC(C)C)ccc2Sc2ccc(C)cc21 | inactive: -19.3% | 
Fc1ccc(Br)cc1C1C=C(c2ccc(Br)cc2)Nc2nnnn21 (stereo not given) | inactive: -7.24% | 
Cc1ccc(CNC(=O)CCCN2C(=O)COc3ccc(C)cc32)cc1 | inactive: -33% | 
COc1ccc2oc(-c3cccc(NC(=O)c4sc5c([N+](=O)[O-])cccc5c4Cl)c3)nc2c1 | inactive: 2.63% | 
O=c1c2sc3ccccc3c2n(Cc2cccc(C(F)(F)F)c2)c(=O)n1Cc1ccc(F)cc1 | inactive: 1.65% | 
O=c1oc2ccccc2cc1-c1cn2cc(Cc3ccc(Br)cc3)sc2n1 | inactive: -0.671% | 
Cc1cccc(C)c1Nc1c(-c2ccc(O)cc2)nc2sccn12 | inactive: 15.2% | 
CCOc1ccc(S(=O)(=O)NCCc2sc3nc(-c4ccc(C)cc4)nn3c2C)cc1 |  | active: 20 µM
Cc1cc(C)cc(-n2ccn(Cc3ccc(F)cc3)c(=O)c2=O)c1 | inactive: -10.1% | 
CCCn1c(CCC(=O)Nc2ccccc2OC)nc2cccnc21 | inactive: 5.58% | 
COc1ccc(NC(=O)CC2C(=O)N(c3cccc(OC)c3)C(=O)N2Cc2ccc3c(c2)OCO3)cc1 (stereo not given) | inactive: -1.62% | 
CCOc1ccc2nc(N3CCCC(C(=O)NCc4ccccc4OC)C3)sc2c1 (stereo not given) | inactive: 4.72% | 

— PubChem BioAssay AID1508642 (National Center for Advancing Translational Sciences (NCATS), 2021)
